This note sets out measurements from US20090143279A1 (priority 2007, published 2009).

Structures are written as SMILES. Where two headings read alike, the source gives them in different places.

This experiment relates to cellular ATP levels. The following applies: for ATP (composite Z-score): normalized score vs mock-treated (DMSO) wells.
Setting [1] is: composite Z-score vs DMSO, Conc 20 μM.
Setting [2] is: normalized composite Z-score vs mock-treated (DMSO) wells, Conc 20 μM.
The mark [3] stands for this setting: composite Z-score vs mock-treated (DMSO) wells, Conc 20 μM.
Setting [4] is: composite Z-score vs DMSO wells, Conc 20 μM.
The mark [5] stands for this setting: 20 μM, composite Z-score vs DMSO.

Regarding `N[C@H]1C(O)O[C@H](CO)[C@H](O)[C@@H]1O[C@@H]1O[C@H](C(=O)O)[C@@H](O)[C@H](O)[C@H]1O` (stereo partly drawn) [chondrosine], the ATP under setting [1] came to 0.150.
`CC(C)=CC1C(CO)C1(C)C` (stereo not drawn) [chrysanthemyl alcohol]: the ATP under setting [2] was 0.964.
Under setting [3], `Cc1cc(O)c2c(O)c3c(O)cccc3cc2c1` [chrysarobin] gave an ATP of 0.593.
In the case of `COc1cc(OC)c2c(=O)cc(-c3ccccc3)oc2c1` [chrysin dimethyl ether], the “ATP (composite Z-score)” value (Conc 20 μM) is −0.343.
Under setting [4], `O=c1cc(-c2ccccc2)oc2cc(O)cc(O)c12` [chrysin] gave an ATP of 0.097.
In turn, `COC(=O)C[C@H]1C2(C)CC34OC5(C)O[C@@]6([C@H](OC)C(OC(=O)C(C)C)[C@]7(C)C(/C(=C(/OC)C(C)C)C(=O)O[C@H]7c7ccoc7)[C@@]6(O5)[C@H](OC)[C@@]3(OC)C2OC(C)=O)[C@]14C` (stereo partly drawn) [chukrasin methyl ether] came in with an ATP under setting [3] of 0.533.
Regarding `CC1=C2C(=CO[C@H](C)[C@H]2C)C(O)=C(C(=O)O)C1=O` [citrinin], under setting [4], the ATP came out at 0.637.
Turning to `CC[C@H]1OC(=O)[C@H](C)[C@@H](O[C@H]2C[C@@](C)(OC)[C@@H](O)[C@H](C)O2)[C@H](C)[C@@H](O[C@@H]2O[C@H](C)C[C@H](N(C)C)[C@H]2O)[C@](C)(OC)C[C@@H](C)C(=O)[C@H](C)[C@@H](O)[C@]1(C)O` [clarithromycin], under setting [1], the ATP is −0.911.
Compound `CC(C)(C)NCC(O)c1cc(Cl)c(N)c(Cl)c1` (stereo not drawn) [clenbuterol] had an ATP (14.44 μM, composite Z-score vs DMSO) of −0.416.
Under setting [2], `CC(=O)OC1CCC23CC1(C)CCC2C(C)(C)CC3OC(C)=O` (stereo not drawn) [clovanediol diacetate] showed an ATP of −0.009.
Regarding `COC1=C(OC)C(=O)C(C/C=C(\C)CC/C=C(\C)CC/C=C(\C)CC/C=C(\C)CC/C=C(\C)CC/C=C(\C)CC/C=C(\C)CC/C=C(\C)CC/C=C(\C)CCC=C(C)C)=C(C)C1=O` [coenzyme Q10], for the setting “Conc 20 μM”, the “ATP (composite Z-score)” value is recorded as 0.525.
As to `COc1cc2c(c(OC)c1OC)-c1ccc(=O)c(O)cc1[C@@H](NC(C)=O)CC2` [colchiceine], the ATP under setting [1] was −0.848.
Turning to `COc1cc(/C=C/CO)ccc1O` [coniferyl alcohol], the “ATP (composite Z-score)” value (Conc 20 μM) is recorded as 0.124.
The compound `O=c1cc(-c2ccc(O)cc2)oc2cc(O[C@@H]3O[C@H](CO)[C@@H](O)[C@H](O)[C@H]3O)cc(O)c12` [cosmosiin] showed an ATP under setting [1] of −0.890.
`COc1c2c(cc3c1OCO3)CC[N+](C)=C2` [cotarnine] had an ATP under setting [3] of 1.285.
Take `CC(C)(O)CC[C@@H](O)[C@](C)(O)[C@H]1CC[C@@]2(O)C3=CC(=O)[C@@H]4C[C@@H](O)[C@@H](O)C[C@]4(C)[C@H]3CC[C@]12C` [crustecdysone]: the “ATP (composite Z-score)” value (Conc 20 μM) is reported as 0.693.
`NC1(C(=O)O)CCCC1` [cycloleucine] displayed an ATP under setting [5] of 0.045.
In the case of `CN(C)CCOC(=O)C(c1ccccc1)C1(O)CCCC1` (stereo not drawn) [cyclopentolate], under setting [4], the ATP was 0.293.
`CC(=O)C1=C(O)[C@@H]2[C@H]3c4c[nH]c5cccc(c45)C[C@H]3C(C)(C)N2C1=O` [cyclopiazonic acid] gave an ATP under setting [1] of −0.353.
For the compound `CO[C@H]1C[C@H](O[C@H]2CC[C@]3(C=O)[C@H]4CC[C@]5(C)[C@@H](C6=CC(=O)OC6)CC[C@]5(O)[C@@H]4CC[C@]3(O)C2)O[C@H](C)[C@H]1O` [cymarin], where the note is “Conc 20 μM”, the “ATP (composite Z-score)” value was −0.332.
Regarding `CC(=O)[C@@]1(O)CC[C@H]2[C@@H]3C=C(Cl)C4=CC(=O)[C@@H]5C[C@@H]5[C@]4(C)[C@H]3CC[C@@]21C` [cyproterone], under setting [1], the ATP is given as 0.856.
Under setting [2], `CC(=O)O[C@H]1C[C@@H](OC(C)=O)C(C)(C)C2CC(=O)[C@]3(C)C(CC[C@@]4(C)[C@H](C(=O)O)OC(=O)C5OC543)[C@]21C` (stereo partly drawn) [deacetoxy(7)-7-oxokhivorinic acid] gave an ATP of 0.363.
As to `CC1(C)C=CC(=O)[C@@]2(C)C1CC(=O)[C@]1(C)C2CC[C@@]2(C)[C@H](c3ccoc3)OC(=O)C3OC321` (stereo partly drawn) [deacetoxy-7-oxisogedunin], the “ATP (composite Z-score)” value (Conc 20 μM) is recorded as −0.566.
In the case of `CC1(C)C(=O)C=C[C@]2(C)[C@H]3CC[C@@]4(C)[C@H](c5ccoc5)OC(=O)[C@H]5O[C@]54[C@]3(C)C(=O)C[C@@H]12` [deacetoxy-7-oxogedunin], under setting [3], the ATP is −0.025.
With `CC1(C)C(=O)C=C[C@]2(C)[C@H]3CC[C@@]4(C)[C@H](c5ccoc5)OC(=O)[C@H]5O[C@]54[C@]3(C)[C@H](O)C[C@@H]12` [deacetylgedunin], under setting [3], the ATP turned out to be 0.232.
Where the note is “Table 4, C2C12 myotubes, 48 h, composite Z-score”, `COc1cc2c(cc1OC)[C@@H]1C(=O)c3ccc4c(c3O[C@@H]1CO2)C=CC(C)(C)O4` [deguelin(−), reference compound] yielded an ATP of −5.123.
Compound `CC(C)c1ccc2c(c1)CC[C@H]1[C@](C)(C(N)=O)CCC[C@]21C` [dehydroabietamide] returned an ATP under setting [2] of 0.588.
In turn, `COc1cc2c(cc1OC)-c1c(oc3c4c(ccc3c1=O)OC(C(C)C)C4)CO2` (stereo not drawn) [dehydrodihydrorotenone, reference compound] showed an ATP under setting [3] of 0.084.
Take `COc1ccc2c(c1)OCc1c-2oc2cc(OC)ccc12` [dehydrovariabilin]: the ATP under setting [1] is listed as −0.517.
For `CCN1C[C@]2(C)CC[C@H](OC)[C@@]34C1[C@]1(OCO[C@@]15C[C@H](OC)[C@H]1C[C@]3(O)[C@@H]5[C@H]1OC)[C@@H](OC(C)=O)[C@H]24` [deltaline], for the setting “Conc 20 μM”, the “ATP (composite Z-score)” value is 0.619.
With `CC(=O)O[C@@H]1CC2C(C)(C)CCC[C@]2(C)C2CC[C@]3(C)C(=CC(=O)O[C@H]3c3ccoc3)[C@@]21C` (stereo partly drawn) [deoxodeoxydihydrogedunin], the ATP under setting [3] came to 0.419.
In turn, `CC1(C)C2CC(=O)O[C@@]3(C)C4=CC(=O)O[C@@H](c5ccoc5)[C@]4(C)CCC3[C@@]2(C)C=C[C@H]1O` (stereo partly drawn) [deoxyandirobin lactone] gave an ATP under setting [3] of 0.967.
The same measure, in the same setting: the same measure for `C=C1C2=CC(=O)O[C@@H](c3ccoc3)[C@]2(C)CC[C@@H]1[C@@]1(C)C=CC(=O)C(C)(C)[C@@H]1CC(=O)OC` [deoxyandirobin]: 1.237.
With `CC(=O)O[C@@H]1C[C@H]2C(C)(C)C(=O)C=C[C@]2(C)[C@H]2CC[C@]3(C)C(=CC(=O)O[C@H]3c3ccoc3)[C@@]21C` [deoxygedunin], the ATP under setting [1] is 1.094.
`CC(=O)O[C@@H]1C=C[C@]2(C)C(C[C@@H](OC(C)=O)[C@]3(C)C4=CC(=O)O[C@H](c5ccoc5)[C@@]4(C)CCC23)C1(C)C` (stereo partly drawn) [deoxygedunol acetate] registered an ATP under setting [3] of 0.032.
The compound `Nc1nc2c(ncn2[C@H]2C[C@H](O)[C@@H](CO)O2)c(=O)[nH]1` [deoxyguanosine] gave an ATP under setting [1] of 0.734.
`CC(=O)O[C@H]1C[C@@H](OC(C)=O)C(C)(C)[C@@H]2C[C@@H](OC(C)=O)[C@@]3(C)C4=CC(=O)O[C@@H](c5ccoc5)[C@]4(C)CC[C@@H]3[C@@]12C` [deoxykhivorin]: where the note is “Conc 20 μM”, the “ATP (composite Z-score)” value is −0.330.
Consider `COc1ccc2c(c1)OCC(Cc1ccc(OC)c(OC)c1)C2=O` (stereo not drawn) [deoxysappanone B trimethyl ether], for which the “ATP (composite Z-score)” value (Conc 20 μM) is recorded as 1.619.
Take `COc1ccc2c(c1)OCC(Cc1ccc(O)c(OC)c1)C2=O` (stereo not drawn) [deoxysappanone b 7,3′-dimethyl ether, reference compound]: under setting [2], the ATP is listed as −1.027.
For `Cc1cc(N)c2ccccc2[n+]1CCCCCCCCCC[n+]1c(C)cc(N)c2ccccc21` [dequalinium], the ATP is −5.078 (8.76 μM, composite Z-score vs DMSO) and −5.120 under setting [5].
In the case of `CC(C)=CCc1c(O)cc2occ(-c3ccc4c(c3)OCO4)c(=O)c2c1O` [derrubone], the ATP under setting [1] is −3.786.
Under setting [2], `COc1cc(OC)c2c(OC)c(-c3ccc4c(c3)OCO4)c(=O)oc2c1` [derrusnin] yielded an ATP of 0.050.
In the case of `c1ccc2c(c1)CN1CCCC1=N2` [desoxypeganine], the ATP under setting [1] is 0.956.
Same read-out and setting: as for `CC(=O)OCC(=O)[C@@]1(O)[C@H](C)C[C@H]2[C@@H]3CCC4=CC(=O)C=C[C@]4(C)[C@@]3(F)[C@@H](O)C[C@@]21C` [dexamethasone acetate], the figure is 0.307.
As to `CC(=O)Oc1cccc2c1C(=O)c1c(OC(C)=O)cc(C(=O)O)cc1C2=O` [diacerin], where the note is “Conc 20 μM”, the “ATP (composite Z-score)” value came out at 0.672.
On to `CC(=O)c1c(O)c(C)c(O)c2c1oc1c(C(C)=O)c(O)c(C)c(O)c12` [diacetyldideisovaleryl-rhodomyrtoxin], for which the ATP under setting [3] is on record as −0.179.
Take `C/C=C(/C(=C/C)c1ccc(O)cc1)c1ccc(O)cc1` [dienestrol]: the ATP is, setting by setting: (15.02 μM, composite Z-score vs DMSO) −0.794; under setting [5], 0.336.
Under setting [2], `CC1(C)C(=O)CC[C@@]2(C)C1C[C@@H](O)[C@@]1(C)C3=CC(=O)O[C@@H](c4ccoc4)[C@]3(C)CCC21` (stereo partly drawn) [dihydro-7-desacetyldeoxygedunin] showed an ATP of 1.060.
Under setting [2], `CC(C)C1COc2cc3oc(=O)ccc3cc2O1` (stereo not drawn) [dihydro-obliquin] displayed an ATP of −0.036.
The same measure, in the same setting: as for `C=C1CCC(=O)C(C)CCC2C1CC2(C)C` (stereo not drawn) [dihydrocaryophyllen-5-one], the figure is 0.364.
As for `CC(=O)Oc1cc2c(c(C)c1OC(C)=O)CC=C1[C@@]2(C)CC[C@@]2(C)C3C[C@](C)(C(=O)O)CC[C@]3(C)CC[C@]12C` (stereo partly drawn) [dihydrocelastryl diacetate], under “Conc 20 μM”, the “ATP (composite Z-score)” value is −4.966.
`CC(=O)O[C@@H]1CC2C(C)(C)C(=O)CC[C@]2(C)C2CC[C@]3(C)C(=CC(=O)O[C@H]3c3ccoc3)[C@@]21C` (stereo partly drawn) [dihydrodeoxygedunin]: the ATP under setting [2] is listed as 1.697.
`CN1C[C@H](C(=O)N[C@]2(C)O[C@@]3(O)[C@@H]4CCCN4C(=O)[C@H](Cc4ccccc4)N3C2=O)C[C@@H]2c3cccc4[nH]cc(c34)C[C@H]21` [dihydroergotamine] had an ATP under setting [4] of 0.585.
`COC(=O)C[C@H]1C(C)(C)[C@@H](OC(C)=O)[C@@H]2CC3C4CC(=O)O[C@@H](c5ccoc5)[C@]4(C)CCC3[C@@]1(C)C2=O` (stereo partly drawn) [dihydrofissinolide] returned an ATP under setting [3] of −0.079.
`CC(C)=CCCC1(C)C=Cc2c(O)c3c(c(CC=C(C)C)c2O1)OC12C(=CC4CC1C(C)(C)OC2(C/C=C(/C)C(=O)O)C4O)C3=O` (stereo not drawn) [dihydrogambogic acid] displayed an ATP under setting [3] of −8.298.
